# According to the supplement of paper PMC4166925:
# ± gives the standard deviation of the averaged measurements. Over roughly 33,000 sequences, “E-score (dimensionless, -0.5 to 0.5)” has its median near -0.049; the highest 2% begin near 0.37. Some of the results follow.
# System: T1, PmTbr T-box DNA-binding domain (GST fusion)
# T1 sequence: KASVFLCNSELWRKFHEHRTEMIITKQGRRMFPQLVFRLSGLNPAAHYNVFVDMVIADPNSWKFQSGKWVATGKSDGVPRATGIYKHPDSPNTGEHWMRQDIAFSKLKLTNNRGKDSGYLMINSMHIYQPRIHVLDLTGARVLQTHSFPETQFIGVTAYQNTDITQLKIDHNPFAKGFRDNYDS
# Assay: PBM E-score of 8-mer (E-score (dimensionless, -0.5 to 0.5)); Tbr is Tbrain of the sea star Patiria miniata (Pm) or the sea urchin Strongylocentrotus purpuratus (Sp); higher = stronger binding preference; most listed sequences are background and not binding sites
# Details: the construct has about 5 more residues each side
# Procedure, shortened: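 Each ungapped 8-mer received an enrichment E-score from the Universal PBM Analysis Suite, averaged over duplicate arrays. The proteins were Tbr T-box DNA-binding domains, covering the whole T-box plus about five flanking residues, fused to GST and expressed in BL21 E. coli at 20 °C before glutathione affinity purification. Universal Agilent oligonucleotide arrays were made double-stranded by primer extension and incubated with 200 nM protein in PBS (pH 7.5). The arrays were then scanned and quantified, and every 8-mer was scored from probe intensities.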
row,Sequence,PBM E-score of 8-mer
1,GGCATACC,-0.0479 ± 0.039
2,ATATGAGC,-0.275 ± 0.02
3,TAACCCAA,-0.0826 ± 0.031
4,CGTCGAGC,0.0651 ± 0.0014
5,TCATGGCA,0.0795 ± 0.03
6,CCCAATTC,-0.225 ± 0.059
7,AGTAAGGA,-0.156 ± 0.046
8,GGCAGGGA,-0.112 ± 0.0014
9,ACGCGACC,-0.0369 ± 0.11
10,CAATCGCG,0.269 ± 0.026
11,GTGACTTA,-0.0258 ± 0.045
12,ACGCCTGA,0.206 ± 0.042
13,CATTTGGC,0.0793 ± 0.0055
14,AAGGTAAG,-0.315 ± 0.0057
15,TATGCGCA,-0.3154 ± 0.001
16,ATGACTTC,-0.0662 ± 0.037
17,GACGGCAA,-0.0141 ± 0.033
18,CGCAAGCC,-0.0832 ± 0.076
19,ACTTTCCT,0.191 ± 0.058
20,AAAAGTAC,-0.113 ± 0.074
21,GGTTAGTA,-0.188 ± 0.063
22,ACTAGTTC,0.0632 ± 0.069
23,ACCCCTTG,-0.00456 ± 0.057
24,ATGTTACA,0.0933 ± 0.047
25,CCAGATTA,-0.18 ± 0.0084

row,Sequence,PBM E-score of 8-mer
1,ATATACAG,-0.0624 ± 0.028
2,GCGAACGC,0.338 ± 0.042
3,CAGCTTGC,0.199 ± 0.032
4,CACTGTTC,0.0889 ± 0.003
5,TAAGTTCA,-0.108 ± 0.012
6,CTAGCAGC,0.0468 ± 0.033
7,GCATCGTA,-0.122 ± 0.023
8,AGTTCGGG,-0.0412 ± 0.12
9,GCAGTCTA,-0.213 ± 0.033
10,GCAGCTAA,0.0268 ± 0.036
11,GAAATTAC,0.0834 ± 0.14
12,CGCAGTAA,0.0339 ± 0.034
13,ATCTGCAG,-0.0601 ± 0.031
14,CGCGACCG,0.233 ± 0.029
15,GAGAGCGC,-0.0109 ± 0.032
16,TCGACTCA,-0.145 ± 0.029
17,CAAGCCGG,-0.327 ± 0.038
18,ACGCCTAT,0.319 ± 0.0038
19,AAGCTTTC,-0.022 ± 0.014
20,ATTTCCTA,-0.0913 ± 0.096
21,TCAGCAAA,-0.0833 ± 0.054
22,ATCCGTCA,-0.0175 ± 0.026
23,AAGTTTCT,0.101 ± 0.091
24,ACGGGCGG,-0.0753 ± 0.057
25,AGCATCGG,-0.188 ± 0.02

row,Sequence,PBM E-score of 8-mer
1,GGTTTCCA,-0.081 ± 0.028
2,CGTTAGCA,0.394 ± 0.012
3,GACGAAAA,0.0978 ± 0.12
4,AGCCGGCT,-0.358 ± 0.021
5,AGGATCTG,-0.273 ± 0.057
6,CTTAGCCC,-0.172 ± 0.033
7,AGTTAGTA,-0.0652 ± 0.01
8,ACTGCTAC,-0.0921 ± 0.023
9,GTTGTTAA,0.338 ± 0.029
10,GCTATAAA,0.0784 ± 0.026
11,CTTAGCAC,0.4 ± 0.0047
12,CCTGAATC,-0.0399 ± 0.0061
13,TATGGAGA,-0.209 ± 0.021
14,CGTTCGTA,-0.101 ± 0.035
15,ACGTACCG,-0.111 ± 0.041
16,GAATGATC,-0.0267 ± 0.00081
17,AGGTACCT,-0.00768 ± 0.00088
18,CGTAAGAG,-0.222 ± 0.041
19,GCTAAGAA,0.107 ± 0.12
20,ACCATACA,-0.0577 ± 0.022
21,AACCTACG,-0.21 ± 0.0028
22,CAATATGG,-0.031 ± 0.021
23,CTCGACAA,0.131 ± 0.017
24,GTTTTGGA,-0.258 ± 0.05
25,ACCCGTGG,0.002 ± 0.0038

row,Sequence,PBM E-score of 8-mer
1,ATCGATAA,0.0914 ± 0.086
2,ATCCTTAC,0.0606 ± 0.034
3,ATAGATGA,-0.147 ± 0.059
4,CAGAGCCA,0.0029 ± 0.0065
5,CGGGCAAA,-0.171 ± 0.0053
6,AGGCTTTA,-0.236 ± 0.052
7,ACACGGAA,0.0215 ± 0.021
8,GTGAGCCA,0.0202 ± 0.042
9,ATAAATAA,-0.259 ± 0.017
10,CAATGGAA,-0.144 ± 0.028
11,ATAAGTAA,0.082 ± 0.054
12,CCTCTTCA,0.0188 ± 0.05
13,CCGTGAAA,0.222 ± 0.019
14,CTTTACTA,-0.0858 ± 0.059
15,CGGGATCC,-0.132 ± 0.037
16,ACGGTTTG,0.0657 ± 0.037
17,AACTTGCA,0.186 ± 0.014
18,GCCCCTGA,-0.0764 ± 0.072
19,AGCGTGGG,-0.1 ± 0.085
20,AATTAGCC,-0.0249 ± 0.03
21,AGATTATG,-0.28 ± 0.024
22,ACATCATA,0.056 ± 0.069
23,CCATCCCC,-0.261 ± 0.055
24,CACATGCG,0.16 ± 0.0062
25,CTCTTAGA,-0.246 ± 0.025

row,Sequence,PBM E-score of 8-mer
1,TCGTCACA,0.3455 ± 0.0028
2,AGAAAAAC,-0.149 ± 0.069
3,ATTACGAG,-0.0382 ± 0.07
4,CCGGTCCC,-0.324 ± 0.04
5,GTAACGAC,0.105 ± 0.083
6,TACCAAAA,-0.127 ± 0.086
7,CATTCTTC,-0.0142 ± 0.0099
8,AGATACGA,-0.172 ± 0.0095
9,ATGGGCTG,-0.0431 ± 0.049
10,CACTAGCA,0.197 ± 0.024
11,TCGGCCAA,-0.0197 ± 0.067
12,CGAATGGC,0.0367 ± 0.0062
13,CAGGGACG,-0.0768 ± 0.0047
14,TAGCTCCA,-0.3151 ± 0.0019
15,AGTGGCGG,0.215 ± 0.061
16,CGAACCGA,0.116 ± 0.058
17,TCGTGCCA,0.198 ± 0.011
18,CAGCCCAA,-0.205 ± 0.05
19,GGCCACGA,-0.203 ± 0.0067
20,CCCACTGC,-0.122 ± 0.12
21,CCACTTTC,0.104 ± 0.06
22,AATCACCA,0.0367 ± 0.012
23,ACAGGCCC,-0.165 ± 0.08
24,AACTAAAT,-0.108 ± 0.018
25,GTGGAGGA,0.00318 ± 0.03

row,Sequence,PBM E-score of 8-mer
1,CTGACTGC,-0.0183 ± 0.029
2,AGCTGGTA,-0.0785 ± 0.028
3,CTCAGTCA,-0.0137 ± 0.0022
4,GGAAATTA,-0.19 ± 0.13
5,GACACGCC,0.234 ± 0.058
6,TACTCAGA,0.055 ± 0.043
7,ATTAGAGC,-0.204 ± 0.039
8,ACATCGAT,-0.114 ± 0.087
9,ACTAAGGA,-0.235 ± 0.096
10,CGGATAGC,-0.00127 ± 0.028
11,TCGCCCGA,-0.00096 ± 0.011
12,GATTTGAA,-0.195 ± 0.015
13,CCGTCAAA,0.197 ± 0.013
14,GAGAGCCC,-0.0477 ± 0.083
15,ACAGTCTG,-0.103 ± 0.039
16,GAGCCAGA,-0.143 ± 0.016
17,AACTCGCT,0.0278 ± 0.052
18,TACGATAA,0.0904 ± 0.12
19,CAAATTTC,-0.0301 ± 0.043
20,AGCTCGCA,0.283 ± 0.026
21,GACCACTC,-0.0354 ± 0.022
22,AGCATCAT,-0.213 ± 0.013
23,ACATACCG,0.0185 ± 0.022
24,CTCGCGAA,0.368 ± 0.0047
25,AAAGGAAG,-0.0957 ± 0.051

row,Sequence,PBM E-score of 8-mer
1,GCCTGATA,-0.158 ± 0.022
2,GTACCTCA,0.132 ± 0.0091
3,CTAGGCAC,0.0756 ± 0.0076
4,GACCTTAC,-0.313 ± 0.028
5,CGTGAATA,0.296 ± 0.038
6,CCCTATAC,-0.277 ± 0.0063
7,CCCGGTGC,-0.0156 ± 0.011
8,ACCCCAAG,-0.0413 ± 0.013
9,ATCGGACA,0.057 ± 0.047
10,CGGAAGCA,-0.257 ± 0.062
11,ATTGGCGG,0.036 ± 0.0086
12,GCGGCTGA,-0.0367 ± 0.014
13,TCCGCAAA,0.0333 ± 0.071
14,CGGATTAG,-0.0405 ± 0.062
15,AAGATCTA,0.0852 ± 0.0097
16,AACGTCCA,-0.285 ± 0.059
17,GTTATAGA,-0.111 ± 0.052
18,AAAAAATG,-0.186 ± 0.043
19,CGGCGGTA,-0.196 ± 0.014
20,GGGAAGGA,-0.207 ± 0.0023
21,CCAACGGC,-0.019 ± 0.021
22,ATCTAACA,0.243 ± 0.0094
